About 230 (0.21%) of roughly 110,000 compounds showed an effect of 50% or more. The list shows a part of the results.
Each compound was assayed against DPAP1 (Plasmodium falciparum, UniProt Q8IIJ9) (assay: primary screen, percent inhibition; read by cleavage of a fluorogenic dipeptide substrate; higher = more effect of the substance).
Chain of DPAP1 (Q8IIJ9 whole entry, looked up): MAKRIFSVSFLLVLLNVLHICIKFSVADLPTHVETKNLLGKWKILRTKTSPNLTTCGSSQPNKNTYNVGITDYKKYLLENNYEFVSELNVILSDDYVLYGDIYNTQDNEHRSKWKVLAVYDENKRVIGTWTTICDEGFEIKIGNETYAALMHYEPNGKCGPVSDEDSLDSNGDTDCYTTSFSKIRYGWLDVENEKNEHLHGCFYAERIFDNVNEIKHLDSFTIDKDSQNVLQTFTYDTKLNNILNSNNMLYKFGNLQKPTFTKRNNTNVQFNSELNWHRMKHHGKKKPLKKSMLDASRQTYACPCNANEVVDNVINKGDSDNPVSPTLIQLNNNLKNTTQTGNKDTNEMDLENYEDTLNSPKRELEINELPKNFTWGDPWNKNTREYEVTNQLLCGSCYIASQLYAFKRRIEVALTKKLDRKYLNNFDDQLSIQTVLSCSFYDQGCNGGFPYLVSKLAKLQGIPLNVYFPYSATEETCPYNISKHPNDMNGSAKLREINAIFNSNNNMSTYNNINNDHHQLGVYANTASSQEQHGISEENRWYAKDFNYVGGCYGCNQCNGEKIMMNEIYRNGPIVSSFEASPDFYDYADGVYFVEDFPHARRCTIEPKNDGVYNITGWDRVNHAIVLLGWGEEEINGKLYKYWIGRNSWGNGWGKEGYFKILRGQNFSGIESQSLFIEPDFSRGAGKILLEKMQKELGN
Design: species or system P. falciparum D10 trophozoite lysates; single well
For `CCOC(=O)N1CCN(c2nc3ccc(Cl)cc3n3cnnc23)CC1`, the “% Inhibition @ 10 uM” value was 4.33%. `O=C(COc1ccc(Cl)cc1Cl)Nc1ccc(S(=O)(=O)N2CCCCCC2)cc1` was tested, and the “% Inhibition @ 10 uM” value was -1.49%. `CCn1cc(CCCC(=O)N2CCCC2)c2ccccc21` was tested, and the “% Inhibition @ 10 uM” value was 2.07%. `Fc1ccc(CN2CCc3c([nH]c4ccccc34)C2)cc1F` was tested, and the “% Inhibition @ 10 uM” value was 4.57%. In the case of `CCCCN(C)CCCNC(=O)Cn1ncc2c3ccccc3n(Cc3ccc(F)cc3)c2c1=O`, the “% Inhibition @ 10 uM” value is reported as 6.46%. In the case of `Cc1ccc(C(=O)N/C(=C\c2cccs2)C(=O)NCCc2ccccn2)cc1C`, the “% Inhibition @ 10 uM” value is reported as 0.484%. In the case of `COCCNc1ncnc2c1nc1n2CCCCC1`, the “% Inhibition @ 10 uM” value is reported as 1.51%. With `N#Cc1cc2c(nc1SCC(=O)Nc1nonc1N)CCC2` the “% Inhibition @ 10 uM” value was 4.61%. With `COCCn1c(=N)c(C(N)=S)cc2c(=O)n3ccccc3nc21` the “% Inhibition @ 10 uM” value was 6.7%. For `COc1ccccc1CNC(=O)CCS(=O)(=O)c1cccc2nonc12`, the “% Inhibition @ 10 uM” value was -8.38%. In the case of `CN1C(=O)C(=Cc2ccc(Sc3ccc(Cl)cc3)o2)C(=O)N(C)C1=O`, the “% Inhibition @ 10 uM” value is reported as -3.78%. `C/C(=N\Cc1ccco1)C1=C(O)CC(C)(C)CC1=O` was tested, and the “% Inhibition @ 10 uM” value was -7.75%. In the case of `Cc1cc(C)c(/C=C2\NC(=S)NC2=O)c(C)c1`, the “% Inhibition @ 10 uM” value is reported as -5.62%. `O=C(CNC(=O)c1ccccc1F)Nc1nccs1` was tested, and the “% Inhibition @ 10 uM” value was -3.06%. With `Cc1ccc(CNC(=O)C2CCN(c3nnc(-n4c(C)ccc4C)s3)CC2)cc1` the “% Inhibition @ 10 uM” value was 4.33%. With `CCOc1ccc(CC(=O)Nc2ccc(OC)cc2)cc1OCC` the “% Inhibition @ 10 uM” value was -5.27%. `CC1CCCCC1NC(=O)COCc1cc(-c2cccs2)on1` (centres unmarked) was tested, and the “% Inhibition @ 10 uM” value was -1.04%. In the case of `O=C(CCc1cn(Cc2ccc(F)cc2)c2ccccc12)NCc1cccnc1`, the “% Inhibition @ 10 uM” value is reported as -1.11%. `COCCn1c(SCC(=O)NCC2CCCO2)nnc1-c1c[nH]c2ccccc12` (centres unmarked) was tested, and the “% Inhibition @ 10 uM” value was -1.3%. With `COc1ccc(C2NN=C(c3ccccc3O)S2)cc1` (centres unmarked) the “% Inhibition @ 10 uM” value was 0.0538%. `CC(C)=C1C2C=CC1C1C(=O)N(c3ccc(C)c(Br)c3)C(=O)C21` (centres unmarked) was tested, and the “% Inhibition @ 10 uM” value was -8.72%. With `CC(C)=C1N=C(c2ccccc2)OC1=O` the “% Inhibition @ 10 uM” value was 1.42%. `O=C(O)CC(NC(=O)C(c1ccccc1)c1ccccc1)c1ccco1` (centres unmarked) was tested, and the “% Inhibition @ 10 uM” value was 1.9%. `c1cc(-c2noc(C34CC5CC(CC(C5)C3)C4)n2)ccn1` was tested, and the “% Inhibition @ 10 uM” value was 2.16%. With `Cc1ccc(/C=c2\sc3n(c2=O)C(N)=C(C#N)C(c2ccc(C)o2)C=3C#N)o1` (centres unmarked) the “% Inhibition @ 10 uM” value was 6.58%. In the case of `COc1ccc(OC)c(CN2C[C@@H]3C[C@H](C2)c2cccc(=O)n2C3)c1`, the “% Inhibition @ 10 uM” value is reported as 4.7%. In the case of `CCCCNC(=O)C(Sc1ccccc1)c1ccccc1` (centres unmarked), the “% Inhibition @ 10 uM” value is reported as 0.317%. For `O=C(c1cccnc1)N1CCN(Cc2ccc(Br)cc2)CC1`, the “% Inhibition @ 10 uM” value was 8.6%. With `Cc1ccc2nc(N3CC(=O)N(CCc4ccccc4)C(=O)C3)c3nncn3c2c1` the “% Inhibition @ 10 uM” value was 0.981%.

— article PMC6919601, “Identification of Plasmodium dipeptidyl aminopeptidase allosteric inhibitors by high throughput screening” (PLoS ONE, 2019)
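Also: 30 min substrate incubation versus DMSO and 10 µM JCP410 controls.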
